Reference: publication PMC12136788
Some of the results follow.

B1: 156051411_156051531_318_3pUTR_ENSG00000254726_ENST00000532414|human|control|control (ssRNA)
RNA: GGGAGUUCUACAGUCCGACGAUCCAGGCGCAGCUCGGCCUCUUUGUAGAGAGCGCAGAGCUUGGCGUCGCUCGCCCCUUUGGGGGCGGUGGGGGGCUGGGGCGUCUGCGCUGCGGGGGCCGCCGUCGGGGCGGCCGGGGGCGCCAACAGAGGAUUGAGCAUCA
B2: chr17:62495851:62495852:-_ENSG00000108654_ENST00000581693|hu_mus|FALSE|FALSE (ssRNA)
RNA: GGGAGUUCUACAGUCCGACGAUCUCACUGUACAGUUACUUUUGUGAAAACACUGCCUGCAUUUUCUAGUACAAAAAAAACCUAAAAAUUGUUUCAGGAAUGUAGAGAAAUAUCCAACUUAAAUAGCGAAAAAAGUGCACCAUACAACAGAGGAUUGAGCAUCA
B3: chr10:33221514:33221515:-_ENSG00000150093_ENST00000302278|perfect_dup|motif|central (ssRNA)
RNA: GGGAGUUCUACAGUCCGACGAUCAUUUGGCCCUGCUUGUAUACAUUCUCCACAUGAUUUGGCAUUUGCUUUUAAACAUCGGUUUUCAUCUGUUUGAGCAAACACACAGCAAACUGAACUGAUCAGUCCAAUCCAGAAAAUUGGCAACAGAGGAUUGAGCAUCA
B4: chr2:198351390:198351391:-_ENSG00000144381_ENST00000345042|hu_hu|hu_hu_hu_mus_False|28_88 (ssRNA)
RNA: GGGAGUUCUACAGUCCGACGAUCUCAUUCCCACCCUCCACAGAAAGGCUGCUUAACAACUCUCAUGUGGUGACACAGCGCUACAGUCCUGAUGCUCACAGAACAGUAGUAAAAAUGCAGUGAUUUAAGUUGAAAGCAGGACACCAACAGAGGAUUGAGCAUCA
B5: chr7:13615833:13615834:+_ENSMUSG00000005566_ENSMUST00000005705|mus_mus|FALSE|FALSE (ssRNA)
RNA: GGGAGUUCUACAGUCCGACGAUCCUUGUUGAACUGUUUGAACAUGCGGCCCACAUCUUGAGCAAACUCCUGGGGGGAGCUAUAAGGAGGUGACAGCUUCUCUUGGAGGCGAGCACGAAUCAAGGUCAGGUCUAGGGUACCACCCAACAGAGGAUUGAGCAUCA
B6: 146275045_146276268_750_CDS_ENSMUSG00000037110_ENSMUST00000109986|mouse|control|control (ssRNA)
RNA: GGGAGUUCUACAGUCCGACGAUCAUCUUGAUUCUCUUUAUUCUUCCACUCCAAGCUUGCAGCCUGAAUAACCAUGUAUUUCAACAGUAUUUGAAGAAAAAAGCAGGUUUGGUCCUCAGCAAUCUUCUCCCCUGAUAUGGCUGGCAACAGAGGAUUGAGCAUCA
B7: chr7:29966231:29966232:-_ENSG00000136193_ENST00000242059|hu_hu|FALSE|FALSE (ssRNA)
RNA: GGGAGUUCUACAGUCCGACGAUCCCCAAAACAGGGAGACUGUGUUUUGGGGACAAGUUUUACGUCAUCAACAAAGAUGAAAGGCUUGAAUAUGGACCUGGAAGGAUCAGGGGUUCCAGUGAAGUAGUGAAUGCACGGAGAGCUCAACAGAGGAUUGAGCAUCA
B8: chr10:5892124:5892125:-_ENSMUSG00000061759_ENSMUST00000095893|mus_mus|motif|central (ssRNA)
RNA: GGGAGUUCUACAGUCCGACGAUCUUCAUUAAAACUACUUGAAAGUUUUGCAUUUAACUUAGAAUAGUGACAGAAGUAUAACGGGCUUAAACCCAAACCAAUGCAGCGGGGCAAACCAUUCCAAGGAAGCCUCGUCUACUGUACCAACAGAGGAUUGAGCAUCA
B9: 33921043_33925325_607_CDS_ENSG00000006125_ENST00000262325|human|control|control (ssRNA)
RNA: GGGAGUUCUACAGUCCGACGAUCAAUCACUUUCUUCACAGCCUCCUUUCUCUUUUCUUUCUUUUCAUUGUUGAGUUCAGCUUUUAGUUCAAAUAUUUCUCCUUUUUUAUUGGUUGUGAAAUACUUGGAGUCAGUCAUGACUUUCAACAGAGGAUUGAGCAUCA
B10: chr2:179515052:179515053:+_ENSMUSG00000000305_ENSMUST00000000314|mus_hu|mus_mus_mus_hu_False|98_98 (ssRNA)
RNA: GGGAGUUCUACAGUCCGACGAUCGCUGUCCCAUGCAGUGACGGUAAACGCCACCUGCUCGGAGGGGACCUGCAGCUCCCGGGUGGCGAAGACUGUCCCAUCUGCCCCAACUUUGAAGUCCAUGCUGUUGGUCUCAUAUUGUGUCAACAGAGGAUUGAGCAUCA
B11: chr16:68260615:68260616:+_ENSG00000072736_ENST00000346183|hu_mus|motif|central (ssRNA)
RNA: GGGAGUUCUACAGUCCGACGAUCUCUGAGAUAGAGCCUGCUGCAUUCACACUCAAAGCACCCAUCAUAUAAAAGUAUCCGGUUUAAAUAUAUAUAUAUAUAUAUAUAUAUAUAUAUAAAAGCAAAGCUCGUUUCCCACAGCUGCAACAGAGGAUUGAGCAUCA
B12: chr12:89993059:89993060:-_ENSG00000070961_ENST00000261173|hu_hu|FALSE|FALSE (ssRNA)
RNA: GGGAGUUCUACAGUCCGACGAUCAGGUAUUUCUUCCUUUUGUGUUCCAUGACCAGCUUCUUUGAGGAAUUUUAAACGGCUAGUUGGAAUUGUUGAAAUAAGCUGGCCCCAGAGUAAUGUUCCCAUUCCUAGGAAUAUUGACCACAACAGAGGAUUGAGCAUCA
B13: chrX:71482573:71482574:-_ENSMUSG00000031328_ENSMUST00000144429|mus_mus|FALSE|FALSE (ssRNA)
RNA: GGGAGUUCUACAGUCCGACGAUCCUCCCACUGAAAAUGGACUCUUGGGGAUGUGAUCUCCUCCAUAAGUGACAUUGACACCUACUGGGCCCUGCUGCACAGGAAUGUACUUGACUGUGUAGGUAUUAUCAUGGUGGUCAAUGACAACAGAGGAUUGAGCAUCA
B14: chr1:225611761:225611762:-_ENSG00000143815_ENST00000272163|hu_mus|hu_hu_hu_mus_True|18_48 (ssRNA)
RNA: GGGAGUUCUACAGUCCGACGAUCCCAGGCCAUCGGCCUCUGACCACUUCACCCUCAACAAACUUCCUACUUGGCAUUUUCUAAAAUUAACCUGCGCGCGCUCCGGCGGGAACUCCAGACGGCUCCCGACAGUCACCAGCAGCCCAACAGAGGAUUGAGCAUCA

Target: T1, UNK ZnF1-3 (human, UniProt Q9C0B0 31-174)
T1 sequence: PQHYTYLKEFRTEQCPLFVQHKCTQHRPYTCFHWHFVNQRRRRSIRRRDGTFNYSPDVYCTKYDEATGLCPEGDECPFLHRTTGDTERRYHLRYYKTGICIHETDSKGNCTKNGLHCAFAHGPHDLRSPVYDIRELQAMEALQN
Test: nsRBNS (natural sequence RNA bind-n-seq); RBNS binding buffer (assumed for nsRBNS): 25 mM Tris pH 7.5, 150 mM KCl, 3 mM MgCl2, 0.01% Triton X-100, 500 ug/ml BSA, 20 U/ml SUPERase-In, 4 C; UNK is unkempt and MSI1 is Musashi-1; names of the RNAs are library labels; protein concentration not given here; high values mean tight binding

Binder | binding signal
B1 | 0.651 enrichment R
B2 | 1.09 enrichment R
B3 | 1.09 enrichment R
B4 | 1.3 enrichment R
B5 | 2.23 enrichment R
B6 | 0.921 enrichment R
B7 | 1.69 enrichment R
B8 | 0.761 enrichment R
B9 | 0.244 enrichment R
B10 | 0.731 enrichment R
B11 | 1.08 enrichment R
B12 | 0.72 enrichment R
B13 | 0.766 enrichment R
B14 | 1.38 enrichment R
